Results on ten variants are retold here after the supplement of paper PMC12217912.

First the molecules themselves.
B1: TEV protease; numbered along this chain (parent)
chain: MGESLFKGPRDYNPISSSICHLTNESDGHTTSLYGIGFGPFIITNKHLFRRNNGTLVVQSLHGVFKVKDTTTLQQHLVDGRDMIIIRMPKDFPPFPQKLKFREPQREERICLVTTNFQTKSMSSMVSDTSCTFPSGDGIFWKHWIQTKDGQCGSPLVSTRDGFIVGIHSASNFTNTNNYFTSVPKNFMELLTNQEAQQWVSGWRLNADSVLWGGHKVFMVKPEEPFQPVKEATQL

The other results are listed elsewhere or left out. The full chains were built here from the parent and the listed change. Values near 0.05 are background.

The variants in the assay derive from B1. The experiment in a line: raw area under fraction-flipped curve 0-4 h after induction (AUC4h, not background-subtracted), DNA-recorder readout of cleavage of the substrate (dimensionless); higher = more cleavage of the substrate by the protease variant. The settings on record: temperature: 34 °C; time window: 0-4 h after rhamnose induction.
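Note: Bxb1 expression induced with 0.2% (w/v) L-rhamnose at OD600 near 0.5, cultures sampled hourly, flipped fraction per protease–substrate barcode pair counted by paired-end Illumina sequencing.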

As to MGESLFKGPRDYNPISSSICHLTNESDGHTTSLYGIGFGPFIITNKHLFRRNNGTLVVQSLHGVFKVKDTTTLQQHLVDGRDMIIIRMPKDFPPFPQKLKFREPQREERICLVTTNFQTKSMSSMVSDTSCTFPSGDGIFWKHWIQTKDGQCGSPLVSTRDGFIVGIHSASNFLNTNNYFTSVPKNFMELLTNQEAQQWVSGWRLNADSVLWGGHKVFMVKPEEPFQPVKEATQL [T174L], the “area with substrate ENLDFQS” value came to 0.061, the “area with substrate ENLFFQS” value was 0.104, the “area with substrate ENLHFQS” value is 0.0678 and the “area with substrate ENLIFQS” value is 0.093. Also, the “area with substrate ENLKFQS” value was 0.0902, the “area with substrate ENLQFQS” value was 0.0733, the “area with substrate ENLRFQS” value came out at 0.0867 and the “area with substrate ENLSFQS” value amounted to 0.0501. The “area with substrate ENLVFQS” value was found to be 0.0859.

As for MGESLFKGPRDYNPISSSICHLTNESDGHTTSLYGIGFGPFIITNKHLFRRNNGTLVVQSLHGVFKVKDTTTLQQHLVDGRDMIIIRMPKDFPPFPQKLKFREPQREERICLVTTNFQTKSMSSMVSDTSCTFPSGDGIFWKHWIQTKDGQCGSPLVSTRDGFIVGIHSASNFRNTNNYFTSVPKNFMELLTNQEAQQWVSGWRLNADSVLWGGHKVFMVKPEEPFQPVKEATQL [T174R], the “area with substrate ENLDFQS” value is 0.0638, the “area with substrate ENLEFQS” value came out at 0.0623, the “area with substrate ENLFFQS” value came out at 0.0744 and the “area with substrate ENLHFQS” value came out at 0.0913. Also, the “area with substrate ENLIFQS” value was determined as 0.0851, the “area with substrate ENLKFQS” value turned out to be 0.0785, the “area with substrate ENLLFQS” value came to 0.0641 and the “area with substrate ENLMFQS” value was determined as 0.0666. In addition, the “area with substrate ENLNFQS” value stood at 0.0475, the “area with substrate ENLPFQS” value was determined as 0.0713, the “area with substrate ENLQFQS” value was determined as 0.0423 and the “area with substrate ENLVFQS” value came out at 0.0509. Also, the “area with substrate ENLWFQS” value was 0.0508.

For MGESLFKGPRDYNPISSSICHLTNESDGHTTSLYGIGFGPFIITNKHLFRRNNGTLVVQSLHGVFKVKDTTTLQQHLVDGRDMIIIRMPKDFPPFPQKLKFREPQREERICLVTTNFQTKSMSSMVSDTSCTFPSGDGIFWKHWIQTKDGQCGSPLVSTTDGFIVGIHSASNFTNTNNYFTSVPKNFMELLTNQEAQQWVSGWRLNADSVLWGGHKVFMVKPEEPFQPVKEATQL [R160T], the “area with substrate ENLDFQS” value amounted to 0.055, the “area with substrate ENLEFQS” value was determined as 0.0846, the “area with substrate ENLGFQS” value was determined as 0.0409 and the “area with substrate ENLHFQS” value stood at 0.0817. Also, the “area with substrate ENLKFQS” value stood at 0.0848, the “area with substrate ENLLFQS” value came out at 0.0886, the “area with substrate ENLNFQS” value was found to be 0.0657 and the “area with substrate ENLPFQS” value was found to be 0.0573. Also, the “area with substrate ENLRFQS” value amounted to 0.085, the “area with substrate ENLSFQS” value is 0.0757, the “area with substrate ENLVFQS” value turned out to be 0.123 and the “area with substrate ENLWFQS” value was 0.0676.

Consider MGESLFKGPRDYNPISSSICHLTNESDGHTTSLYGIGFGPFIITNKHLFRRNNGTLVVQSLHGVFKVKDTTTLQQHLVDGRDMIIIRMPKDFPPFPQKLKFREPQREERICLVTTNFQTKSMSSMVSDTSCTFPSGDGIFWKHWIQTKDGQCGSPLVSTRDGFIVGIHSASNFTNPNNYFTSVPKNFMELLTNQEAQQWVSGWRLNADSVLWGGHKVFMVKPEEPFQPVKEATQL [T176P], for which the “area with substrate ENLDFQS” value was 0.0653, the “area with substrate ENLEFQS” value amounted to 0.0392, the “area with substrate ENLFFQS” value worked out at 0.0729 and the “area with substrate ENLHFQS” value came out at 0.0645. Further, the “area with substrate ENLIFQS” value is 0.0436, the “area with substrate ENLKFQS” value is 0.0652, the “area with substrate ENLNFQS” value is 0.0512 and the “area with substrate ENLPFQS” value was determined as 0.0639. In addition, the “area with substrate ENLQFQS” value is 0.0624, the “area with substrate ENLRFQS” value amounted to 0.0617, the “area with substrate ENLTFQS” value was determined as 0.0532 and the “area with substrate ENLVFQS” value was 0.0662. Also, the “area with substrate ENLWFQS” value amounted to 0.0635.

In the case of MGESLFKGPRDYNPISSSICHLTNESDGHTTSLYGIGFGPFIITNKHLFRRNNGTLVVQSLHGVFKVKDTTTLQQHLVDGRDMIIIRMPKDFPPFPQKLKFREPQREERICLVTTNFQTKSMSSMVSDTSCTFPSGDGIFWKHWIQTKDGQCGSPLVSTRDGFIVGIHSASNFTNTNNYFTSVPKVFMELLTNQEAQQWVSGWRLNADSVLWGGHKVFMVKPEEPFQPVKEATQL [N186V], the “area with substrate ENLDFQS” value was found to be 0.0669, the “area with substrate ENLEFQS” value amounted to 0.0664, the “area with substrate ENLFFQS” value turned out to be 0.0719 and the “area with substrate ENLHFQS” value amounted to 0.059. The “area with substrate ENLIFQS” value is 0.0781, the “area with substrate ENLKFQS” value was found to be 0.0774, the “area with substrate ENLNFQS” value stood at 0.064 and the “area with substrate ENLPFQS” value is 0.065. For the same variant, the “area with substrate ENLVFQS” value came to 0.0875.

On to MGESLFKGPRDYNPISSSICHLTNESDGHTTSLYGIGFGPFIITNKHLFRRNNGTLVVQSLHGVFKVKDTTTLQQHLVDGRDMIIIRMPKDFPPFPQKLKFREPQREERICLVTTNFQTKSMSSMVSDTSCTFPSGDGIFWKHWIQTKDGQCGSPLVSTRDGFIVGIHSASNFTNTNNYFTSVPKYFMELLTNQEAQQWVSGWRLNADSVLWGGHKVFMVKPEEPFQPVKEATQL [N186Y], for which the “area with substrate ENLDFQS” value worked out at 0.0642, the “area with substrate ENLFFQS” value was 0.0871, the “area with substrate ENLHFQS” value was determined as 0.0604 and the “area with substrate ENLKFQS” value was 0.0854. For the same variant, the “area with substrate ENLLFQS” value worked out at 0.0702, the “area with substrate ENLNFQS” value stood at 0.0787 and the “area with substrate ENLRFQS” value was 0.0633.

Take MGESLFKGPRDYNPISSSICHLTNESDGHTTSLYGIGFGPFIITNKHLFRRNNGTLVVQSLHGVFKVKDTTTLQQHLVDGRDMIIIRMPKDFPPFPQKLKFREPQREERICLVTTNFQTKSMSSMVSDTSCTFPSGDGIFWKHWIQTKDGQCGSPLVSTRDGFIVGIHSASNFTNTNNYFTSVPKAFMELLTNQEAQQWVSGWRLNADSVLWGGHKVFMVKPEEPFQPVKEATQL [N186A]: the “area with substrate ENLDFQS” value was found to be 0.0704, the “area with substrate ENLEFQS” value was found to be 0.059, the “area with substrate ENLFFQS” value was 0.0921 and the “area with substrate ENLHFQS” value was found to be 0.0568.

On to MGESLFKGPRDYNPISSSICHLTNESDGHTTSLYGIGFGPFIITNKHLFRRNNGTLVVQSLHGVFKVKDTTTLQQHLVDGRDMIIIRMPKDFPPFPQKLKFREPQREERICLVTTNFQTKSMSSMVSDTSCTFPSGDGIFWKHWIQTKDGQCGSPLVSTRDGFIVGGHSASNFTNTNNYFTSVPKNFMELLTNQEAQQWVSGWRLNADSVLWGGHKVFMVKPEEPFQPVKEATQL [I167G], for which the “area with substrate ENLDFQS” value came out at 0.0576, the “area with substrate ENLEFQS” value came to 0.0552, the “area with substrate ENLFFQS” value is 0.0662 and the “area with substrate ENLHFQS” value is 0.0677. The “area with substrate ENLKFQS” value was 0.0531, the “area with substrate ENLLFQS” value came out at 0.056, the “area with substrate ENLMFQS” value was determined as 0.053 and the “area with substrate ENLNFQS” value is 0.0552. Also, the “area with substrate ENLSFQS” value was determined as 0.0595 and the “area with substrate ENLVFQS” value stood at 0.0935.

In the case of MGESLFKGPRDYNPISSSICHLTNESDGHTTSLYGIGFGPFIITNKHLFRRNNGTLVVQSLHGVFKVKDTTTLQQHLVDGRDMIIIRMPKDFPPFPQKLKFREPQREERICLVTTNFQTKSMSSMVSDTSCTFPSGDGIFWKHWIQTKDGQCGSPLVSTRDGFIVGIHSASNFTNTNNYFTSVPKNFMKLLTNQEAQQWVSGWRLNADSVLWGGHKVFMVKPEEPFQPVKEATQL [E189K], the “area with substrate ENLDFQS” value was 0.0576, the “area with substrate ENLEFQS” value was found to be 0.0787, the “area with substrate ENLFFQS” value is 0.0929 and the “area with substrate ENLHFQS” value stood at 0.0704. Further, the “area with substrate ENLIFQS” value was 0.0723, the “area with substrate ENLKFQS” value is 0.0602, the “area with substrate ENLLFQS” value was determined as 0.0464 and the “area with substrate ENLQFQS” value amounted to 0.101.

Turning to MGESLFKGPRDYNPISSSICHLTNESDGHTTSLYGIGFGPFIITNKHLFRRNNGTLVVQSLHGVFKVKDTTTLQQHLVDGRDMIIIRMPKDFPPFPQKLKFREPQREERICLVTTNFQTKSMSSMVSDTSCTFPSGDGIFWKHWIQTKDGQCGSPLVSTRDGFIVGIHSASNFTNTNNYFTSVPKNFMELLTNQEAQQWVSGWRLNMDSVLWGGHKVFMVKPEEPFQPVKEATQL [A207M], the “area with substrate ENLDFQS” value stood at 0.0465, the “area with substrate ENLFFQS” value was found to be 0.0785, the “area with substrate ENLHFQS” value stood at 0.0729 and the “area with substrate ENLKFQS” value came out at 0.0605. Also, the “area with substrate ENLLFQS” value was determined as 0.0679, the “area with substrate ENLNFQS” value stood at 0.0571 and the “area with substrate ENLSFQS” value worked out at 0.0649.
